# Assay results: the RNAGym collection of RNA variant scans (doi:10.7554/elife.90254)
# The source gives no read counts; variants with many changes may rest on few reads.
# B1: OR4K15 (parent)
# chain: GUUAACGGUCAUAGGCCAUGGAAACUAGGAGCACCAUUUCGCUGCCAGUGAAGAAAUGAACAAAGAAAAUCUGGGCCAGGCAGGCAUCAAAAGAAAUAGUCUUGCGCUCAACCAGAAAGUCUGUAAUCAUUUUAAGGGUA
# Variants of: B1
# Assay: self-cleavage, relative activity (ratio to wild type); higher = more cleavage; in vitro, sequencing; the parent is a self-cleaving ribozyme
row,Variant,self-cleavage
1,GUUAACGGUCAUAGGCCAUGGAAACUAGGAGCACCAUUUCGCUGCCAGUGAAGAAAUGAACGAAGAAAAUCUGGGCCAGGCAGGCAUCAAAAGAAAUAGUCUUGUGAUCAACCAGAAAGUCUGUGAUCAUUUUAAGGGUA [A62G C105U C107A A125G],0
2,GUUAACGGUCAUAGGCCAUGGAAACUAGGAGCACCAUUUCGCUGCCAGUGAAGAAAUGAACGAAGAAAAUCUGGGCCAGGCAGGCAUCAGAAGAAAUAGUCUUGCGCUCAACCGGAGAGCCUGUAAUCAUUUUAAGGGUA [A62G A90G A114G A117G U120C],0.02
3,GUUAACGGUCAUAGGCCAUGGAAACUAGGAGCACCAUUUCGCUGCCAGUGAAGAAAUGAACGAAGAAAAUCUGGGCCAGGCAGGCAUCAAAAGAUAUAGUCUUGCGCACAACCAGAAAGUCUGUAAUCAUUUUGAGGGUA [A62G A95U U108A A134G],0
4,GUUAACGGUCAUAGGCCAUGGAAACUAGGAGCACCAUUUCGCUGCCAGUGAAGAAAUGAACGAAGAAAAUCUGGGCCAGGCAGGCUUCAAAAGAAAUAGUCCUGCGCUCAGCCAGAAAGUCUGUAAUCAUUUUAAGGGUA [A62G A86U U102C A111G],0.01
5,GUUAACGGUCAUAGGCCAUGGAAACUAGGAGCACCAUUUCGCUGCCAGUGAAGAAAUGAACGAAGAAAAUCUGGGCCAGGCAGGCAUCAAAGGAAAUAGUCUUGCGCUCAACCUGAAAGUCUGUAAUCGUCUUAAGGGUA [A62G A92G A114U A129G U131C],0.02
6,GUUAACGGUCAUAGGCCAUGGAAACUAGGAGCACCAUUUCGCUGCCAGUGAAGAAAUGAACGAAGAAAAUCUGGGCCGGGCAGGCAUCAAAAGAAAUAGUCUUGCGCUCAACCAGUAAGUCUGUAAUCAUUUUAAGGGUA [A62G A78G A116U],0.08
7,GUUAACGGUCAUAGGCCAUGGAAACUAGGAGCACCAUUUCGCUGCCAGUGAAGAAAUGAACUAAGGAAAUCUGGGCCAGGCAGGCAUCAAAAGAAAUAGUCUUGCGCUCGACCAGAAAGUCUGUAAUCAUUUUAAGGGUA [A62U A66G A110G],0.17
8,GUUAACGGUCAUAGGCCAUGGAAACUAGGAGCACCAUUUCGCUGCCAGUGAAGAAAUGAACGAAGAAAAUCUGGGCCAGGCAGGCAUCAAAAGAAAUAGUCUUGCGCUCAACCAGAGAGUCCGUAAUCAUUUUAAGGGUA [A62G A117G U122C],1.25
9,GUUAACGGUCAUAGGCCAUGGAAACUAGGAGCACCAUUUCGCUGCCAGUGAAGAAAUGAACGAAGAAAAUCUGGGCCUGGCAGGCAUCAAAAGAAAUAGUCUCGCGCUCAACCAGAAAGUCUGUAAUCACUUUAGGGGUA [A62G A78U U103C U130C A135G],0.01
10,GUUAACGGUCAUAGGCCAUGGAAACUAGGAGCACCAUUUCGCUGCCAGUGAAGAAAUGAACGAAGAAAAUCUGGGCCAGGCAGGCAUCAAAAGAAAUAGUCUUGCGCUCGACCAGAAAGUCUGUAAUCACUUUAAGGGUA [A62G A110G U130C],0.1
11,GUUAACGGUCAUAGGCCAUGGAAACUAGGAGCACCAUUUCGCUGCCAGUGAAGAAAUGAACGAAGAAAUUCUGGGCCAGGCAGGCAUCAAAAGAAAUAGUCUUGCGCUCAACCAGUAAGUCUGUAAUCAAUUUAAGGGUA [A62G A69U A116U U130A],0.27
12,GUUAACGGUCAUAGGCCAUGGAAACUAGGAGCACCAUUUCGCUGCCAGUGAAGAAAUGAACUAAGGAAAUCUUGGCCAGGCAGGCAUCAAAAGAAAUAGUCUUGCGCUCAACCAGAAAGUCUGUGAUCAUUUUAAGGGUA [A62U A66G G73U A125G],0.03
13,GUUAACGGUCAUAGGCCAUGGAAACUAGGAGCACCAUUUCGCUGCCAGUGAAGAAAUGAACGAAGAAAAUCUGGGCCCGGCAGGCAUCGAAAGAAAUAGUCUUGCGCUCAACCAGGAAGUCUGUAAUCAUUAUAAGGGUA [A62G A78C A89G A116G U132A],0.05
14,GUUAACGGUCAUAGGCCAUGGAAACUAGGAGCACCAUUUCGCUGCCAGUGAAGAAAUGAACGAAGAAAAUCUGGGCCAGGCAGGCAUCAAAAGAAAUAGUCUUGCGCUCAACCAGGAAGUCUAUAAUCAUUUUAAGGGUA [A62G A116G G123A],0.91
15,GUUAACGGUCAUAGGCCAUGGAAACUAGGAGCACCAUUUCGCUGCCAGUGAAGAAAUGAACGAAGAAAAUCUGGGCCAGGCAGGCAUCAAAAGAAAUAGUCUUGCGCUCCACCAGAAAGUCUGUAAUCGUUUUAAGGGUA [A62G A110C A129G],0.09
16,GUUAACGGUCAUAGGCCAUGGAAACUAGGAGCACCAUUUCGCUGCCAGUGAAGAAAUGAACGAAGAAAAUCUGGGCCAGGCAGGCAUCAAAAGAAAUAGUCUUGCGCACAACCAGAAAGUCUGUAAUCAUUUUAGGGGUA [A62G U108A A135G],0.03
17,GUUAACGGUCAUAGGCCAUGGAAACUAGGAGCACCAUUUCGCUGCCAGUGAAGAAAUGAACGAAGAAAAUCUGGGCCAGGCAGGCAUCAAAAGAAGUAGUCUUGCGCUCCACCAGAAAGUCUGUAAUCAUUUUAAGGGUA [A62G A96G A110C],0.21
18,GUUAACGGUCAUAGGCCAUGGAAACUAGGAGCACCAUUUCGCUGCCAGUGAAGAAAUGAACGAAGAAAAUCCGGGCCAGGCCGGCAUCAAAAGAAAUAGUCUUGCGCUCAACCAGAAAGUCUGUAAUCAUCUUAAGGGUG [A62G U72C A82C U131C A140G],0.06
19,GUUAACGGUCAUAGGCCAUGGAAACUAGGAGCACCAUUUCGCUGCCAGUGAAGAAAUGAACGAAGAAUAUCUGGGCCAGGCAGGCAUCAAAAGAAAUAGUCUUGCGCUCAACCAGAAAGUCUGUAAUCAUUAUAAGGGUA [A62G A68U U132A],1.09
20,GUUAACGGUCAUAGGCCAUGGAAACUAGGAGCACCAUUUCGCUGCCAGUGAAGAAAUGAACGAAGAAAAUCUGGGCCAGGCAGGCAUCCAAAGAAAUAGUCUUGCGCUCAACCAGAAAGUCUGUAAUCAUUUUAAGGGAU [A62G A89C U139A A140U],1.08
